Test results reported in PubChem BioAssay AID1347073 (National Center for Advancing Translational Sciences (NCATS), 2019).
Out of some 45,000 compounds screened, about 200 (0.44%) were called active. Inconclusive results (about 7%) are left out. Calls come from the whole dose curve; as a rule, active = well fitted activation curve with a large enough effect; inconclusive = small, poorly fitted or top-dose-only effect; inactive = no such curve, though single readings can be large or run the other way. This is one part of the list.

Assay: qHTS of TDP-43 Inhibitors: NCGC Sytravon Library Screen; note: 0% is about no effect; nearly all actives have a fitted effect of over 55% in size
Conditions: yeast TDP-43 toxicity rescue, BacTiter-Glo growth, 24 h; series mostly up to 46.1 µM; growth rescue (activation): at the top concentration
Summary of the method: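 TDP-43-expressing yeast, pregrown in raffinose, seeded at OD600 0.02 in galactose medium with compound for 24 hr at 30 deg C. Growth read by BacTiter-Glo luminescence, so rescue of toxicity appears as activation.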

Compound | growth rescue (activation)
COc1cccc(-c2cnc(C(O)c3ccc(F)cc3C)[nH]2)c1 (centres undefined) | inactive: -2.17%
COCCN1CCN(C(=O)C2CCC(=O)N(CCc3ccccc3)C2)CC1 (centres undefined) | inactive: -13.5%
CC(C)(C)c1ccc(CSc2nnc(-c3ccccc3NC(=O)c3ccccc3)o2)cc1 | inactive: 7.92%
O=C1CC2(CON=C2c2ccc(F)cc2)C(=O)N1c1ccc(F)cc1 (centres undefined) | inactive: 3.75%
COc1cccc(S(=O)(=O)Nc2ccc(C(=O)N3CCCCCC3)cc2)c1 | inactive: -3.66%
Cc1ccc(NC(=O)CSc2ccccc2NC(=O)c2cccc(Cl)c2)cc1Cl | inactive: -4.63%
CNC(=O)c1sc(Nc2ccc(OCc3ccccc3)cc2)nc1C | inactive: 21.5%
COCc1cc(C)nc(OCC(=O)N/N=C/c2ccc(O)cc2O)c1C#N | inactive: -2.36%
COc1ccc(NC(=S)Nc2ccc3nccnc3c2)cc1 | inactive: -7.05%
CC(C)(C)NC(=O)c1cc(NC(=O)c2cccs2)cc(NC(=O)c2cccs2)c1 | inactive: -2.26%
COc1ccc(NC(=O)/C=N/O)cc1 | inactive: -6.44%
COc1cc(OC)cc(C(=O)Nc2ccccc2C(=O)NCc2cccnc2)c1 | inactive: -6.52%
COc1ccc(C(O)c2ncc(-c3ccccc3)[nH]2)cc1F (centres undefined) | inactive: -6.96%
COc1ccc(S(=O)(=O)N(C)CC(=O)NCCN2CCOCC2)cc1 | inactive: 10.7%
Cc1nc(C(F)(F)F)ccc1C(=O)N1CCC1(C)C(=O)NS(=O)(=O)c1cccc(C#N)c1 (centres undefined) | inactive: -0.343%
NS(=O)(=O)c1cccc(NC(=O)COC(=O)CC2CC3CCC2C3)c1 (centres undefined) | inactive: 0.607%
CC(=O)NCCNC(=O)C1(C)Cc2c(-c3cccc(C(F)(F)F)c3)ccnc2O1 (centres undefined) | inactive: 15.2%
CC(NC(=O)c1ccc2c(c1)C(=O)N(Cc1cccnc1)C2=O)c1ccccc1 (centres undefined) | inactive: -3.46%
Nc1ccc(S(=O)(=O)Nc2nccc(/C=C/c3ccccc3F)n2)cc1 | inactive: -7.52%
COc1ccccc1C(CC(N)=O)c1ccco1 (centres undefined) | inactive: 5%
Cc1c(Cl)cccc1NC(=S)N1CCCN(Cc2ccccc2F)C1 | inactive: 0.696%
O=C(CNC(=O)c1cccs1)OCc1ccc(Cl)cc1 | inactive: 25.8%
O=C(Nc1cccc(NC(=O)c2cccc(F)c2)c1)c1ccccc1 | inactive: 17.5%

Compound | growth rescue (activation)
CC(=O)c1c(C)[nH]c(C(=O)NCC2CCCCC2)c1C | inactive: 20.5%
CCOCCCNC(=S)N1CCCN(c2nc3c(C)c(C)ccc3cc2C#N)CC1 | inactive: 14.1%
Cn1cc(C(=O)NCCO)c(=O)c2ccccc21 | inactive: 0.396%
O=C(O)COc1ccccc1Cc1ccccc1 | inactive: 8.22%
Cc1cc(Br)c2c(c1)=C(c1sc(N3CCCCCC3)nc1O)C(=O)N=2 | inactive: 4.51%
COc1ccc(CCNC(=O)/C(C#N)=C2\N=C(NC(=O)c3ccco3)c3ccccc32)cc1 | inactive: 0.833%
Cc1cc[n+](-c2[nH]c(=O)sc2/C=N/NC([S-])=Nc2ccccc2)cc1 | inactive: -8.54%
COCCCNC(=S)N(Cc1cccnc1)Cc1ccc(OC)c(OC)c1 | inactive: -10.6%
Nc1ccc(S(N)(=O)=O)cc1N | inactive: -0.73%
Cc1cc(S(=O)(=O)N2CCCC2)ccc1OCC(=O)NC1CCCC1 | inactive: 7.38%
CON(C)S(=O)(=O)c1cccc(C(=O)Oc2ccc(N(C)S(=O)(=O)c3ccccc3)cc2)c1 | inactive: -4.99%
COc1cc(/C=C/C(=O)OCC(=O)N2CC3(C)CC2CC(C)(C)C3)ccc1O (centres undefined) | inactive: -9.72%
COc1cccc(OC)c1C(=O)Nc1cccnc1 | inactive: -0.379%
Cc1ccc(C(=O)N/C(=C\c2ccco2)C(=O)NC2CCS(=O)(=O)C2)cc1 (centres undefined) | inactive: 10.1%
N#Cc1ccc(-c2cccc3nccn23)cc1 | inactive: 6.47%
Cc1ccc(N(C(=O)c2csnn2)C(C(=O)NC(C)(C)C)c2cccnc2)cc1C (centres undefined) | inactive: 6.98%
Cc1ccc(-c2nnc(N3CCOCC3)c3ccccc23)cc1S(=O)(=O)NCc1cccnc1 | inactive: 5.22%
O=C(NC(c1ccc(Cl)cc1)c1ccsc1)C1CCN(CCOc2ccc(Cl)cc2)CC1 (centres undefined) | inactive: 14.4%
CCCOP(=O)(c1ccc(N(C)C)cc1)C(O)c1ccc(Cl)cc1Cl (centres undefined) | inactive: 8.31%
CN1CCCN(C(=O)c2ccc(Br)cc2)CC1 | inactive: 3.8%
CCOC(=O)c1cc(-c2ccc3c(c2)OCCO3)n[nH]1 | inactive: 3.77%
O=c1c2nncn2c2cc(C(F)(F)F)ccc2n1CCNc1ncc(C(F)(F)F)cc1Cl | inactive: 24.9%
CC(C)OC(=O)C(=O)NNc1ccccc1 | inactive: 4.25%

Compound | growth rescue (activation)
C=CCNC(=O)NC(=O)COn1nnc2ccc(S(=O)(=O)N(C)C)cc21 | inactive: -1.24%
CCOC(=O)c1ccc(N2C(=O)CC(Nc3ccc(O)cc3)C2=O)cc1 (centres undefined) | inactive: -5.37%
CCOC(=O)c1c(NC(=O)Cn2nc(C(=O)O)c3ccccc3c2=O)sc2c1CCC(C)C2 (centres undefined) | inactive: -36.6%
CCC1(c2ccccc2)NC(=O)N(CC(=O)NCc2ccncc2)C1=O (centres undefined) | inactive: 13.3%
O=C(CCl)N1CCCC1c1ccc2c(c1)OCCO2 (centres undefined) | inactive: 13.8%
CCC(CC)NC(=O)c1cc([N+](=O)[O-])ccc1N1CCOCC1 | inactive: 7.05%
Cn1ccnc1SCC(=O)Nc1ccc(Cl)cn1 | inactive: 12.1%
COc1ccc(-c2csc3nc(-c4ccc(F)cc4)oc(=O)c23)cc1 | inactive: -13%
N#CC(C#N)=C(Nc1ccc(F)cc1)SCc1cccc(F)c1 | inactive: -2.26%
CCOc1ccccc1C(=O)N[C@H](C(=O)OCc1csc(CC(=O)Nc2ccc(C)cc2)n1)C(C)C | inactive: 4.96%
CC12CCC(=O)N1C(C(=O)Nc1cccc3ccccc13)CS2 (centres undefined) | inactive: 3.7%
Oc1c(C=Nc2ccccc2Cl)[nH]c2ccccc12 | inactive: 2.86%
O=C1CN(Cc2nc3cc(Cl)ccc3c(=O)[nH]2)CCN1 | inactive: -26.4%
CCn1ccc(C(=O)Nc2ccccc2SC)n1 | inactive: -0.494%
Nc1nonc1N/N=C/c1c(O)ccc2ccccc12 | inactive: -3.77%
CCN(CC(=O)NCc1cccs1)C(=O)c1cccc(S(=O)(=O)N(C)C)c1 | inactive: 11.9%
CC(=O)Nc1ccc(NC(=O)C(C)Sc2n[nH]c(=O)n2Cc2ccccc2)cc1 (centres undefined) | inactive: 13.1%
COc1ccc(NC(=O)C(=O)NNC(=O)c2cccs2)cc1 | inactive: 5.75%
O=c1c2c(nc3nc(NCc4ccc(Cl)cc4)[nH]n13)CCC2 | inactive: -9.61%
CCCc1nc2nc(C)c(NS(=O)(=O)c3ccc(C4CCCCC4)cc3)c(=O)n2[nH]1 | inactive: 14.5%
CCOc1ccc(CCNCc2c(C(=O)O)n(Cc3ccc(C)cc3)c3cc(OC)ccc23)cc1 | inactive: 11.3%
CCCCc1ccc(NC(=O)C(=O)NCCN2CCN(C(=O)c3ccc([N+](=O)[O-])cc3)CC2)cc1 | inactive: 4.04%
CC1=C(C)CC(C(=O)N2CCN(C/C=C/c3ccccc3)CC2)C(C(=O)O)C1 (centres undefined) | inactive: 5.32%
